Test results: PubChem BioAssay AID2100 (National Center for Advancing Translational Sciences (NCATS), 2009)
The campaign covered roughly 300,000 compounds. About 1,200 (0.4%) were called active. Calls follow the shape of the dose curve; as a rule, active = well fitted inhibition curve with a large enough effect; inconclusive = small, poorly fitted or top-dose-only effect, or another doubt; inactive = no such curve, though single readings can be large or run the other way. The inconclusive results got no clear call from the source. A potency beside an inconclusive call is a rough fit, not a confirmed value.

Molecular target: Lysosomal alpha-glucosidase (Homo sapiens) (UniProt P10253)
Experiment: qHTS Assay for Inhibitors and Activators of Human alpha-Glucosidase Cleavage of Glycogen
Settings: recombinant GAA, glycogen substrate, Amplex Red glucose oxidase fluorescence; series mostly up to 76.4 µM
Source text: NIH Chemical Genomics Center [NCGC] NIH Molecular Libraries Probe Production Centers Network [MLPCN] MLPCN Grant: R03 MH084841-01 Assay Submitter (PI): Wei Zheng NCGC Assay Overview: Alpha-glucosidase is responsible for the hydrolysis of terminal, non-reducing 1,4-linked alpha-D-glucose residues, which releases alpha-D-glucose. It is a lysosomal hydrolase that is required for the degradation of a small percentage (1-3%) of cellular glycogen in humans. Deficiency of this enzyme results in glycogen-storage disease type II (GSDII), also referred to as Pompe disease, an autosomal recessive disorder. Structurally normal glycogen is accumulated in the lysosomes and cytoplasm in affected patients, primarily in muscle tissues. […]
NCGC Assay Protocol Summary: This is an enzyme assay using glycogen from bovine liver (Sigma catalog #: G0885) as the substrate and recombinant human alpha-glucosidase as the enzyme preparation. Upon hydrolysis of the substrate, the glucose product can be detected using the Amplex Red Glucose Oxidase Assay Kit (Invitrogen catalog #: A22189). The product of this reaction can be read with a fluorescence plate reader with an excitation at 573 nm and an emission at 610 nm. […] The AC50 values were determined from concentration-response data modeled with the standard Hill equation. […] (7) Detect the assay plate in a ViewLux plate reader (PerkinElmer) with Ex=573 nm and Em=610nm. […]
Potency is read from the fitted curve at half-maximal effect.

| SMILES | Potency |
| --- | --- |
| COc1cc(/C=N/Nc2ccc(Cl)c(C(=O)O)c2)ccc1OC(=O)c1ccc(F)cc1 | inconclusive: 50.1 µM [inhibitor, single point] |
| O=C1NN(c2ccc(F)c(Cl)c2)C(=O)/C1=C\c1cccc(OC(=O)c2cccs2)c1 | inconclusive: 50.1 µM [inhibitor, single point] |
